PubChem BioAssay (NCI)
Several values for one entry are separate records, joined by “and”; a condition that tells them apart may be missing. Equal values may be shown once.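 Cultured in 96-well plates, cells were exposed to test compound for 48 hours across five concentrations. Abbreviation: GI50, concentration required for 50% inhibition of growth. At the TGI there is no net growth.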

Tested on: NCI-H322M lung
Assay: NCI-60 cell line screen, 48 h

Which GI50 does the source give for O[C@H](CN1CC1)[C@@H](O)CN1CC1 here?
The GI50 was 13.3 µM.

What about the TGI of the same compound?
Its TGI is 49.9 µM.

With O=C(Nc1ccccc1C(=O)Nc1nccs1)c1ccccc1 as the compound, how does the TGI read?
The TGI was greater than 100 µM.

With Cc1cc(S(=O)(=O)Nc2nc3cc(-c4ccsc4)sc3c(=O)n2N)c(S)cc1Cl as the compound, how does the GI50 read?
The GI50 was 55.9 µM.

And the TGI?
The TGI was greater than 100 µM.

For C/C(=C\c1ccccc1)C(=O)NCc1ccc(C(=O)NCCc2c[nH]c3ccccc23)cc1, which TGI is on record?
Its TGI is greater than 100 µM.

Which results are given for O=C(O)c1cc2c(c3ccsc13)-c1ccccc1CC2?
GI50: 23.9 µM; TGI: 77.3 µM

How did the TGI turn out when COc1cc(-c2[o+]c3cc(O)cc(OC4OC(CO)C(O)C(O)C4O)c3cc2OC2OC(CO)C(O)C(O)C2O)cc(OC)c1O (stereo unspecified) was run?
The TGI was greater than 100 µM.

With COc1cc(N=Nc2cccc(S(N)(=O)=O)c2)c2ccccc2c1N as the compound, how does the TGI read?
The TGI was 29.4 µM.

With CC(=O)OCC(OC(C)=O)C(OC(C)=O)C(OC(C)=O)C(=O)CNn1c(-c2ccccc2Cl)nc2ccc(Br)cc2c1=O (stereo unspecified) as the compound, how does the TGI read?
The TGI was greater than 100 µM.

With C=Cc1cnc([N+](=O)[O-])n1C as the compound, how does the TGI read?
The TGI was greater than 100 µM.

How did the TGI turn out when O=C1C2=C(c3ccccc31)C(c1ccc(Cl)cc1)NC(=S)N2 (stereo unspecified) was run?
Its TGI is 48.2 µM.

Which GI50 does the source give for N=C1C(c2nc(-c3ccc(Br)cc3)cs2)=C(O)CN1CC1CCCO1 (stereo unspecified) here?
The GI50 was greater than 100 µM.

What about the TGI of the same compound?
The TGI was greater than 100 µM.

How did the TGI turn out when COc1ccc(C2=NNC(=O)c3ccccc3N2c2nc(-c3cccs3)nc3ccc(Br)cc23)cc1 was run?
The TGI was greater than 100 µM.

For COC(=O)C1=C(c2cc(OC)c(OC)c(OC)c2)O[C@H](c2ccc3c(c2)OCO3)[C@H]1COC(C)=O, which TGI is on record?
Its TGI is greater than 100 µM.

For O=C(Nc1nc(C23CC4CC(CC(C4)C2)C3)cs1)c1cc2cc([N+](=O)[O-])ccc2oc1=O, which TGI is on record?
The TGI was greater than 100 µM.

Which results are given for Cc1c(N)nc(C(CC(N)=O)NCC(N)C(N)=O)nc1C(=O)NC(C(=O)NC(C)C(O)C(C)C(=O)NC(C(=O)NCCc1nc(-c2nc(C(=O)NCCCNCCCCN)cs2)cs1)C(C)O)C(OC1OC(CO)C(O)C(O)C1OC1OC(CO)C(O)C(OC(N)=O)C1O)c1cnc[nH]1 (stereo unspecified)?
GI50: 40.2 µg/mL; TGI: > 10 µM

With C=C1C(=O)O[C@H]2C/C(C=O)=C\[C@H]3O[C@H]3/C(COC(=O)C(C)C)=C/CC12 (stereo partly specified) as the compound, how does the TGI read?
Its TGI is 25.8 µM.

What does the source list for N#Cc1c(NCc2ccccc2)nc(NCc2ccccc2)c(C#N)c1-c1cccc(O)c1?
GI50: 22.1 µM; TGI: 86.2 µM

Which TGI does the source give for COc1ccccc1N1C(=O)/C(=C\c2cccc(Oc3ccccc3)c2)S(=O)(=O)C1c1ccccc1 (stereo unspecified) here?
Its TGI is greater than 100 µM.

Which TGI does the source give for C=C1CC(OC)(C(O)C(=O)N[C@H]2OCO[C@H]3C2O[C@H](C[C@H](O)COC)C(C)(C)C3OC)O[C@H](C)[C@@H]1C (stereo partly specified) here?
The TGI was greater than 0.00772 µM.

Which TGI does the source give for O=c1/c(=C/c2ccc(-c3ccc(Cl)cc3Cl)o2)sc2n1[C@@H](c1ccc3c(c1)OCO3)C=C(c1cc(F)c(Cl)cc1Cl)N=2 here?
The TGI was greater than 100 µM.

COC(=O)[C@@H]1O[C@]12[C@@H](CO[Si](C)(C)C(C)(C)C)O[C@@H](n1cc(C)c(=O)[nH]c1=O)[C@@H]2O[Si](C)(C)C(C)(C)C was tested. Which TGI did it give?
The TGI was 44.3 µM.

For Cc1nnc2sc(-c3ccc([N+](=O)[O-])o3)nn12, which TGI is on record?
The TGI was 61.1 µM.

How did the TGI turn out when COc1ccc(C(C)NNC(=O)c2ccncc2)cc1F (stereo unspecified) was run?
The TGI was greater than 100 µM.

CCCCCCCCC[n+]1cccc(C2C(C(=O)OCC)=C(C)NC(C)=C2C(=O)OCC)c1 was tested. Which TGI did it give?
Its TGI is 30.8 µM.

For c1ccc(COc2cccc3cccnc23)cc1, which TGI is on record?
The TGI was greater than 100 µM.

How did the TGI turn out when CCCCCCCCCCCCCCC(O)C1CCC(C(O)CCC(O)CCCCCC(O)CC2=CC(C)OC2=O)O1 (stereo unspecified) was run?
Its TGI is 17.2 µM.

Which TGI does the source give for CCCC(=O)Nc1cc(/C=C/C(=O)N2C[C@H]3C[C@@]34C2=CC(=O)c2[nH]cc(C)c24)n(C)c1 here?
Its TGI is 0.00712 µM.

With O=C(O)c1ccc2cccnc2c1O as the compound, how does the GI50 read?
Its GI50 is 2.91 µM.

What about the TGI of the same compound?
The TGI was greater than 79.1 µM.

For COC(=O)/C(=N/O)C(C(=O)OC)C(=O)C(=O)Nc1c(Cl)cc(C)cc1S(=O)(=O)O (stereo unspecified), which TGI is on record?
The TGI was greater than 100 µM.

With CC(=O)O[C@H]1C(=O)[C@@]2(C)C(C(OC(=O)c3ccccc3)[C@]3(O)CC(OC(=O)C(O)C(NC(=O)c4ccccc4)c4ccc(C)cc4)C(C)=C1C3(C)C)[C@]1(OC(C)=O)CO[C@@H]1C[C@@H]2O (stereo partly specified) as the compound, how does the TGI read?
The TGI was 4.85 µM.

Which TGI does the source give for CCOC(=O)CCC(C(=O)OCC)n1nnc2cc(Nc3c(C)[n+]([O-])c4ccc(Cl)cc4[n+]3[O-])ccc21 (stereo unspecified) here?
Its TGI is greater than 100 µM.

CC(=O)[C@H]1CCC2[C@@H]3CC=C4C(O)C(OS(=O)(=O)O)CC[C@]4(C)C3CC[C@@]21C (stereo partly specified) was tested. Which TGI did it give?
Its TGI is greater than 100 µM.

With CC(C)(F)C[C@H](N[C@@H](c1ccc(-c2ccc(S(C)(=O)=O)cc2)cc1)C(F)(F)F)C(=O)NC1(C#N)CC1 as the compound, how does the GI50 read?
Its GI50 is > 55 µM and 42.6 µM.

And the TGI?
The TGI was greater than 100 µM.
